Test results as given in article PMC4336329 (PLoS ONE, 2015).
In all, about 310,000 compounds went through this assay and about 14,000 (4.5%) showed an effect of 50% or more. The effect is printed as a negative number. This is one part of the list.

molecular target: human ether-à-go-go-related gene (hERG) potassium channel (human, UniProt Q12809); experiment: primary screen, population patch clamp on CHO cells stably expressing hERG
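Also: peak tail current of the secondary pulse compared with the same well before compound.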

Sequence of human ether-à-go-go-related gene (hERG) potassium channel (Q12809 whole entry, looked up): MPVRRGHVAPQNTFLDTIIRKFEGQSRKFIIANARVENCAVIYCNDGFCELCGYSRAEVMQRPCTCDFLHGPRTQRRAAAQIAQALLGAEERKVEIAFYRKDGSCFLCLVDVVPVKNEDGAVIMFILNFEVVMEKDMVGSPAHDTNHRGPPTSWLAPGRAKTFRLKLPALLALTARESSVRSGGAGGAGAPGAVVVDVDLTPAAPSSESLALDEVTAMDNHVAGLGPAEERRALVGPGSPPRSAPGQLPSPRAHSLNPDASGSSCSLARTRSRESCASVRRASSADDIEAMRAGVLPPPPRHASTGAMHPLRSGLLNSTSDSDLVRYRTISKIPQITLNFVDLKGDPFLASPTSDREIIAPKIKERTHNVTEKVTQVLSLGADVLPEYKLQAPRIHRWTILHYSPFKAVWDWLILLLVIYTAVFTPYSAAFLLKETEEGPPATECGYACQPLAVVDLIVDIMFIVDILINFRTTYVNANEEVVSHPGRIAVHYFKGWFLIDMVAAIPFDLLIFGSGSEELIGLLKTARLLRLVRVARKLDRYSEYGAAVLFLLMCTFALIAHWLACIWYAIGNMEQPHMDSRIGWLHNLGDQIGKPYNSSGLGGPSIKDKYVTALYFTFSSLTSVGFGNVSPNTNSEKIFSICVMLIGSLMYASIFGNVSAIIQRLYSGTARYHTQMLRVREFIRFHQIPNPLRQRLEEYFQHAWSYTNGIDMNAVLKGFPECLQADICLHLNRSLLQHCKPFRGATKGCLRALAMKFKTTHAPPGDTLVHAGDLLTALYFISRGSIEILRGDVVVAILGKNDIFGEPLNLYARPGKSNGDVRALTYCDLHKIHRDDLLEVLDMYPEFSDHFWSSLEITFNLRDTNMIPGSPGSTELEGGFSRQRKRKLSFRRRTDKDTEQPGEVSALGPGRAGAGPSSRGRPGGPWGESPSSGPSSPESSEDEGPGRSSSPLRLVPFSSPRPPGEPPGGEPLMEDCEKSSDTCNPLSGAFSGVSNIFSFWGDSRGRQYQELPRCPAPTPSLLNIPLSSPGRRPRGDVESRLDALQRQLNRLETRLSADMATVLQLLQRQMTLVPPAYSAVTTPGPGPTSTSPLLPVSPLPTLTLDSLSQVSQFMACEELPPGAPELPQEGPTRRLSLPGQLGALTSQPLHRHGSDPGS

SMILES | hERG current change (%, negative = inhibition) at 10uM [%]
COc1ccc(-n2c(CN3CCOCC3)nc3ccc([N+](=O)[O-])cc3c2=O)c(OC)c1 | -3.17
Cc1ccc(C(=O)O)cc1NS(=O)(=O)c1ccc2c(c1)oc(=O)n2C | 13.1
CCNc1nc(SC(C)C(=O)OC)nc(N2CCOCC2)n1 (stereo not drawn) | 6.95
Cn1c(CCC(N)=O)nnc1SCC(=O)Nc1ccccc1C(=O)NC1CC1 | -3.74
CC(C)N(Cc1nc(-c2ccc3c(c2)OCO3)no1)Cc1nccn1C | -11.6
CCOC(=O)C1=C(C)N=C2SCCC(=O)N2[C@@H]1/C=C/c1ccccc1 | -7.79
Cc1nn(C(C)C(=O)NC2CC2)c(=O)c2nn(-c3ccccc3)c(C)c12 (stereo not drawn) | 21.5
COc1ccc(S(=O)(=O)N2CCCC2CNC(=O)C(=O)Nc2cccc(F)c2)cc1 (stereo not drawn) | -16
O=C(Nc1cccc(O)c1)c1cccc(NC(=O)c2cccs2)c1 | -15.5
Cc1ccc2[nH]cc(CCNC(=O)c3ccc4c(c3)OCO4)c2c1 | 9.77
O=C(COC(=O)/C=C/c1ccc([N+](=O)[O-])cc1)NCc1ccco1 | -6.83
COc1ccccc1N1CCN(C(=O)CSc2nc3ccccc3nc2N2CCC(C)CC2)CC1 | 0.304
CCOC(=O)C1CCN(C(=O)C2CCN(c3nnc(-n4cccc4)s3)CC2)CC1 | -62.5
O=C(NCC(c1ccco1)N1CCc2ccccc2C1)c1ccccc1Cl (stereo not drawn) | -17.7
Cc1ccc(NC(=O)CSc2nnc(C3CC3)n2CC2CCCO2)cc1C (stereo not drawn) | -24
O=C(Nc1ccccc1)OC1CC2CC1C1CCCC21 (stereo not drawn) | 14.3
CCOC(=O)C1=NN(C(=O)COc2ccccc2)C(O)(c2ccc(Br)cc2)C1 (stereo not drawn) | -27.9
O=C(CN1CCN(c2ccccn2)CC1)Nc1ccccc1C(=O)Nc1ccccc1 | -42
COc1cc(OC)c(OC)cc1CN1CCN(c2ccc(F)cc2)CC1 | -68.5
Cc1ccc(NS(=O)(=O)c2c(C(=O)N3CCCC3)c(C)n(C)c2C)cc1 | 7.79
C(=N\n1cnnc1)/c1cn(-c2cccs2)nc1-c1ccccc1 | -24.6
Cc1cc(OCC(=O)NCCN2CCOCC2)ccc1Br | -5
CCOC(=O)N1CCN(C(=O)C(c2ccccc2)c2ccccc2)CC1 | 9.71
CCN(C(=O)CN1CCN(c2ccccc2F)CC1)c1c(N)n(Cc2ccccc2)c(=O)[nH]c1=O | 6.68
